# Reference: the supplement of paper PMC10338343
# ± gives the standard deviation. This is a selection; strong and weak results do not stand in their true shares.
# System: MIWI (PIWIL1) piRISC loaded with L1MC piRNA (30 nt)
# Assay: pre-steady-state target cleavage rate (min^-1); MIWI and MILI are mouse PIWI proteins and EfPiwi is from a freshwater sponge; tags in brackets are library labels; higher = faster piRNA-guided slicing of the target
# Settings: guide: L1MC piRNA 5'p-UAACUAAAUACUAUGCAAGCUGUAGGUCCU
# In short: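 Reactions were run for 0–8 or 0–960 min at 33 °C in HEPES–potassium acetate buffer, combining 1 nM active affinity-purified piRISC with one synthetic guide, […] transcribed, DNA-blocked target RNA library and, in some cases, 500 nM GTSF1 partner protein. Sequencing of uncleaved targets followed, with normalisation to depth and to weakly complementary targets. Three trials were pooled, k3 was capped at 0.0001 min^-1, and the pre-steady-state cleavage rate was taken from a burst-and-steady-state fit.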
# [1] = auxiliary factor: 500 nM mouse GTSF1
# [2] = auxiliary factor: none (no GTSF1)
# 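Also: 1 nM active piRISC with 0.1 nM target library at 33 °C single turnover.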
Sequence,pre-steady-state target cleavage rate [1],pre-steady-state target cleavage rate [2]
UCCUGGUACAGCUUGCAUAGUUUUAAGUUA,0.117 ± 0.032,0.012 ± 0.0045
AGGACCUACAGGUUGCAUAGUAUAUAGUUA,0.811 ± 0.078,0.0317 ± 0.0061
UCCUGGAACACCUUGCAUAGUAUAUAGUUA,0.36 ± 0.048,0.00647 ± 0.0026
UCGACCUACAGCUUGCAUAGUAUUUACAAA,0.488 ± 0.053,0.00521 ± 0.0037
UCCUGCUACAGCUUGCAUAGUUAUUAGUUA,0.142 ± 0.022,0.0149 ± 0.0035
UCCACCUACAGCUUGCAUAGUGAUUUAGUUA,0.106 ± 0.02,0.00454 ± 0.0024
UCCUGCUACACGUUGCAUAGUAUUUAGUAA,0.475 ± 0.038,0.00402 ± 0.0018
UCCUCCUACAGCAUGCAUAGAAUUUAGUUA,0.436 ± 0.066,0.00465 ± 0.0017
UGGACCUACAGCUUGCAUAGUAUUAAGUAA,0.335 ± 0.037,0.0164 ± 0.0052
UCCUGGAUGUGCUUGCAUAGUAUUAUAGUUA,0.179 ± 0.02,0.0145 ± 0.004
UCGACCUACAGCUUGCAUAGUAUUUUGAUA,0.359 ± 0.031,0.0246 ± 0.008
UCGACCUACAGCUUGCAUAGUAUUUGGUUA,0.847 ± 0.032,0.0586 ± 0.01
UCGACCUACACCUUGCAUAGUAUUUAGUAA,0.769 ± 0.069,0.0378 ± 0.0082
UGGACCUACUGCUUGCAUAGUAUUUUCAAA,0.0699 ± 0.011,0.00415 ± 0.0018
AGCACCUACAGCUUGCUUAGUAUUUAGUUA,0.978 ± 0.079,0.0389 ± 0.0089
AGGACCUACAGCUUGCAUAGUUAAUAGUUA,0.2 ± 0.034,0.0111 ± 0.004
AGGACCUACAGCUUGCAUAGUAUUUUGAUA,0.266 ± 0.033,0.0142 ± 0.0036
UGGACGAACAGCUUGCAUAGUAUUUUCAAA,0.191 ± 0.026,0.0045 ± 0.0024
UCCUGCUUGAGCUUGCAUAGUAUUUUCAAA,0.0986 ± 0.019,0.00249 ± 0.0023
UCCUGGAUGUGCUUGGUUAGUAUUUAGUUA,0.0184 ± 0.0063,0.00481 ± 0.0023

Sequence,pre-steady-state target cleavage rate [1],pre-steady-state target cleavage rate [2]
UCCUGCAACUGCUUGCAUAGUAUUUAGUUA,1.24 ± 0.072,0.0336 ± 0.0092
AGGACCUUCAGCUUGCAUAGUAUUUACUUA,0.358 ± 0.036,0.0371 ± 0.0065
UCCUGGAUGUGCUUGCAUUGUAUUUACUUA,0.0266 ± 0.0072,0.0102 ± 0.0032
UCCUCCUACAGCUUGCAUAGUAUUGUAGUUA,0.282 ± 0.054,0.00959 ± 0.0038
UCGACCUAGAGCAUGCAUAGUAUUUAGUUA,0.802 ± 0.061,0.0225 ± 0.0038
UCCACCUACAGCUUGCUUACUAUUUAGUUA,0.389 ± 0.026,0.00971 ± 0.0021
UCCACCUACAGCUUGCAUAGUAUUGUAGUUA,0.281 ± 0.047,0.00636 ± 0.0035
UCCUCCAACAGCUUGCAUAGUAUUUAGAAA,0.43 ± 0.042,0.00609 ± 0.0021
AGGACCUACAGCUUGCAUAGUGAUUUAGUUA,0.127 ± 0.023,0.0106 ± 0.0037
UCCACUUACAGCUUGCAUAGUAUUUAGUUA,1.17 ± 0.034,0.0668 ± 0.0094
UCCACCUACAGGCUUGCAUAGUAUUUAGUUA,0.685 ± 0.059,0.0335 ± 0.0066
AGGACCUAGAGCUUCCAUAGUAUUUAGUUA,0.237 ± 0.038,0.00573 ± 0.002
UCCACCUACAGCUAGCAUAGUAUUUAGUAA,0.413 ± 0.045,0.00723 ± 0.0023
AGGACCUACAGCUUGGAUACUAUUUAGUUA,0.222 ± 0.018,0.0227 ± 0.0044
AGGACCUACAGCUUGCAUAGUAUUAAGUUA,0.712 ± 0.055,0.0489 ± 0.011
AGGACCUACAGCUUGCAUACUAUUUACAAA,0.191 ± 0.031,0.00474 ± 0.0026
UCCUGGAUGUGCUUGCAUAGUAUUUUGAUA,0.0664 ± 0.016,0.00851 ± 0.0028
UCCUGGAACAGCUUGCAUAGUUUUUAGAAA,0.149 ± 0.034,0.00541 ± 0.0038
AGCACCUACAGCUUGCAUACUAUUUAGUUA,0.471 ± 0.099,0.00711 ± 0.0024
UCCUGGAUGUGCCUUGCAUAGUAUUUAGUUA,0.421 ± 0.039,0.0231 ± 0.0067

Sequence,pre-steady-state target cleavage rate [1],pre-steady-state target cleavage rate [2]
UCCACCUACACCUUGCAUAGUAAUUAGUUA,0.704 ± 0.076,0.0161 ± 0.0032
UCGAGGAACAGCUUGCAUAGUAUUUAGUAA,1.05 ± 0.11,0.0574 ± 0.012
UGGACCAACAGCUUGCAUAGUAUUUAGAAA,0.403 ± 0.034,0.0158 ± 0.0043
UCCUGGAUGUGCUGGCAUAGUAUUUAGUUA,0.141 ± 0.012,0.0131 ± 0.0037
UCCUCGUACAGCUUGCAUAGUAUUUACAAA,0.343 ± 0.038,0.00367 ± 0.002
UCCUGGAUGAGCUUGCAUUGUAAUUAGUUA,0.0377 ± 0.0067,0.00671 ± 0.003
UCCACCAAGAGCUUGCAUAGUAUUUAGUUA,0.884 ± 0.095,0.0363 ± 0.0078
UCCUGGAACAGCUUGCAUAGUCUUUAGUUA,0.671 ± 0.033,0.0545 ± 0.013
UCCUGCUGCAGCUUGCAUAGUAUUUAGUUA,1.27 ± 0.058,0.0512 ± 0.011
UCCUGGAUGUGCUUGCAUAGUAUAAAGUUA,0.0395 ± 0.0066,0.00918 ± 0.0031
UCCUGGAAGAGCUUGCAAAGUAUUUAGUUA,0.735 ± 0.037,0.028 ± 0.007
UCCUGGAUGAGCUUGCAUAUUAUUUAGUUA,0.824 ± 0.058,0.0317 ± 0.0088
UCCUCCUACAUGCUUGCAUAGUAUUUAGUUA,0.453 ± 0.028,0.034 ± 0.006
UGGACCUAGAGCUUGCAUAGUAAUUAGUUA,0.618 ± 0.045,0.0254 ± 0.0053
UCCUGGAUGAGCUUGCAUAGUAUUUAGUA,0.627 ± 0.056,0.0139 ± 0.0034
UGGACCUAGAGCUUGCAUAGAAUUUAGUUA,0.308 ± 0.027,0.0167 ± 0.0055
UGGACCAACUGCUUGCAUAGUAUUUAGUUA,1.27 ± 0.055,0.0655 ± 0.011
AGGACCUACAGCUUGCGUAGUAUUUAGUUA,1.24 ± 0.077,0.075 ± 0.013
UCCUGGAUGACCUUGCAUUGUAUUUAGUUA,0.0202 ± 0.0061,0.00292 ± 0.0024
UGGACCAACAGCUUGCAUAGUAUUUAGAUA,0.428 ± 0.022,0.0582 ± 0.014
